Laboratory results from the RNAGym collection of RNA variant scans (doi:10.7554/elife.90254).
The source gives no read counts; variants with many changes may rest on few reads.

B1: LINE1-mini (parent)
chain: GGCAGAGCUCAACACAGCGUGGCAAAGUGGCUGUGGCUAGACUGCC

Variants of: B1
Test: self-cleavage, relative activity (ratio to wild type); higher = more cleavage; in vitro, sequencing; the parent is a self-cleaving ribozyme

Q: Which self-cleavage does the source give for GGCAGAGCUCAACACAGCGUGGCAGAGUGGGUGUGGCUAGACUGAC [A25G C31G C45A] here?
A: 0.02

Q: Which self-cleavage does the source give for GUCAGAGCUCAACUCAGCGUGGCAAAGUGUCUGUGGCUAGACUGCC [G2U A14U G30U] here?
A: 0.07

Q: With GGCAGAGCUCAACACAGCGUGGCAUAGUGGCUGCGCCUAGACUGCC [A25U U34C G36C] as the variant, how does the self-cleavage read?
A: 0.07

Q: Which self-cleavage does the source give for GGCAGAACUCAACACAGUGUUGCAAAGUCGCUGUGGCUAGACUGCC [G7A C18U G21U G29C] here?
A: 0.34

Q: With GGCAGAGCUCAACACAGUGUGGCAAAGUGGCUGUGGCUCGUCUGCC [C18U A39C A41U] as the variant, how does the self-cleavage read?
A: 0.43

Q: For GGCAGAGCACCACACAGCGUGGCAAAGUGGAUGUGGCUAGACUGCC [U9A A11C C31A], which self-cleavage is on record?
A: 0

Q: Which self-cleavage does the source give for GGCAGAGCUCAACACAGCGUGGCAAAGUGGCUGUGUCAAGACUACC [G36U U38A G44A] here?
A: 0.05

Q: Which self-cleavage does the source give for GGCAGAGCGCAAGACCGCGUGGCAAAGUCGCUGUGGCUAGACUGCC [U9G C13G A16C G29C] here?
A: 0.03

Q: With GGCAGAGCUCAAAACACCGUGGCUAAAUGGCUGUGGCUAGACUGCC [C13A G17C A24U G27A] as the variant, how does the self-cleavage read?
A: 0.12

Q: For GGCAGAGCUCAACACAGCGUGACAAAGUAUCUGUGGCUAGACUGCC [G22A G29A G30U], which self-cleavage is on record?
A: 2.79

Q: For GGCAGAGCUCAACACAGCGUGGCACAGUGGCUGUGACUAUACUGCC [A25C G36A G40U], which self-cleavage is on record?
A: 0.13

Q: For GGCAGAUCUCAGCACAGCGUGGCAAAGUGGCUGUGGCUAUACUGCC [G7U A12G G40U], which self-cleavage is on record?
A: 0.1

Q: With GGAAGAGCACAACACAGCGUGGCAAAGUGUCUGUGGCUAGAAUGUC [C3A U9A G30U C42A C45U] as the variant, how does the self-cleavage read?
A: 0.36

Q: With AGCAGAGCUCAAAACAGCGUGGCAAAGUUGCUGUGGCUAGACUGCC [G1A C13A G29U] as the variant, how does the self-cleavage read?
A: 0.19

Q: With GGCGGAGAUCAACACAGCGUGGCAAAGUGGCUGUGGCUAGACAGCC [A4G C8A U43A] as the variant, how does the self-cleavage read?
A: 0.46

Q: With CGCAGAGCUUAACACAGCGUGGCUAAGUUGCUGUGGCUAGACUGCC [G1C C10U A24U G29U] as the variant, how does the self-cleavage read?
A: 0.02

Q: With GGCAGAGCUCAACACAACUUGGCAAAGUGGCUGGGGCUAGACCGCC [G17A G19U U34G U43C] as the variant, how does the self-cleavage read?
A: 0.04

Q: With GGCAGAACUCAACUCAGCGUUGCAAAGUGGCUGUGGCUAGACUGCC [G7A A14U G21U] as the variant, how does the self-cleavage read?
A: 0.13

Q: For GGCAGAGCUCAACACAGCGCGACAAAAUUGCUGUGGCUAGACUGCC [U20C G22A G27A G29U], which self-cleavage is on record?
A: 0.25

Q: For GGCAGAGGGCAACACAGCGUGGCAAAGUUGCUGUGGCUAGACUGCC [C8G U9G G29U], which self-cleavage is on record?
A: 0.03

Q: For GGCAGUGCUCAUCACAGCGGGGCAAAGUGGGUGUGGCUAGACUGCC [A6U A12U U20G C31G], which self-cleavage is on record?
A: 0.05

Q: For UGCAGAGCUCAACACAGCGCGGCAAAGUUGCUGUGGCUUGACUGCC [G1U U20C G29U A39U], which self-cleavage is on record?
A: 0.12

Q: With GGCAGAGCUCAUCACAGCGGGGCAAGGUGGCUGUGGCUAGACUGCC [A12U U20G A26G] as the variant, how does the self-cleavage read?
A: 0.05

Q: Which self-cleavage does the source give for GCCAGAGCUAAACACAGCGUGGCAAAGUGGCUGUGUCUAGACUCCC [G2C C10A G36U G44C] here?
A: 0.05

Q: With GGGAGAGCUCAACUGAGCGUGGCUAAGUGGCUGUGGCUAGACUGCC [C3G A14U C15G A24U] as the variant, how does the self-cleavage read?
A: 0.05

Q: With GGCAGAGCUAAACAUAGCGUGGCAAAGUAGCUGUGGAUAGACUGCC [C10A C15U G29A C37A] as the variant, how does the self-cleavage read?
A: 0.01

Q: For GGCAGAGCUGGACACAGCGUGGCAAAGUGGCUGUGCCUAGACUGCC [C10G A11G G36C], which self-cleavage is on record?
A: 0.01

Q: Which self-cleavage does the source give for CGCAGAGCUCAACUCAGCGUGGCAAAGUGGCUGUGGCUAGACUGCU [G1C A14U C46U] here?
A: 0.06

Q: Which self-cleavage does the source give for GUCAGAGCGCAACCCAGCGUGGCAAAGUGGCUGUGGCUAGACUGCC [G2U U9G A14C] here?
A: 0.07

Q: With GGCCGAGCUUAACACAGCGUGGCAAACUGGCAGUAGAGAGACUGCC [A4C C10U G27C U32A G35A C37A U38G] as the variant, how does the self-cleavage read?
A: 0.03

Q: For UGCAGAGCACAACACAGCGUGGCAAAGUGGCUGUGGUUAGACGGCC [G1U U9A C37U U43G], which self-cleavage is on record?
A: 0.13

Q: Which self-cleavage does the source give for GGCAGAACUCAACACAGCGUGUCAUAGUGGCUGUGGAUAGACUGCC [G7A G22U A25U C37A] here?
A: 0.53

Q: For GGCGGAGCUCAACAUAGAGUGGCAAAGUCGCUGUGGCUAGACUGCC [A4G C15U C18A G29C], which self-cleavage is on record?
A: 0.05

Q: For GGCAGAGCUCAACACAUCGUGGCAGUUAGGCUGUUGCUAGUCUGCC [G17U A25G A26U G27U U28A G35U A41U], which self-cleavage is on record?
A: 0.02

Q: Which self-cleavage does the source give for GGCAGAGCUUAACAUAGCGUGGCAAAGUGGCUGUAGCUAGAUCGCC [C10U C15U G35A C42U U43C] here?
A: 0.02

Q: For GGCAGAGUUCAACCCAGCGUGGCAAAGUGGCUGUGUCUAAGCUGCC [C8U A14C G36U G40A A41G], which self-cleavage is on record?
A: 0.23

Q: For GGCAGAGCGCAACACAGCGUGGCAGACUGGCUGUGGCCAGACUGCC [U9G A25G G27C U38C], which self-cleavage is on record?
A: 0.01

Q: With GGCAGAGCUCAAAACAGCGAGGCAAAGUGCCUGUGGCUGGACUGCC [C13A U20A G30C A39G] as the variant, how does the self-cleavage read?
A: 0.2

Q: Which self-cleavage does the source give for GGCAGAGCUCAACACAGCGUGGCCAAGUGGCUGUGGGAAGACUGCC [A24C C37G U38A] here?
A: 0.05

Q: For GGCAGAGCUCAACACAGCGUGGCAACGUGGCUGUGGAUAGACUGAC [A26C C37A C45A], which self-cleavage is on record?
A: 0.02

Q: With GGCAGAGCUCAACACAGCGUGGCAAAGUGGCUGUGUUUAAACUGCC [G36U C37U G40A] as the variant, how does the self-cleavage read?
A: 0.06

Q: With GGCAGAGCUCAACACAGCGUUGCAACGUGGCUGUACCUAGACUGCC [G21U A26C G35A G36C] as the variant, how does the self-cleavage read?
A: 0.09

Q: With GGCCGAGCUCAUCACAGCGUGGCAAAAUGGCUGUGGCUAGACUGCC [A4C A12U G27A] as the variant, how does the self-cleavage read?
A: 0.04

Q: For GGCAGAGCUAAACACAGCGUGGCAAUGUGGCUGUGGCUAUACUGCC [C10A A26U G40U], which self-cleavage is on record?
A: 0.08

Q: For GGCAGAGGUCAACACAGCGUGGCAAAGUGGCCAUGGCUAAACUGCC [C8G U32C G33A G40A], which self-cleavage is on record?
A: 0.09

Q: With AGCAGAGCUCAACACAGAGUGGCAAAGUGGCUGUGACUAGACUGCC [G1A C18A G36A] as the variant, how does the self-cleavage read?
A: 0.9

Q: Which self-cleavage does the source give for GGCAGAGCUCAACACAUCUUGGCAAUGUGGCUGUGGCUAGACUACC [G17U G19U A26U G44A] here?
A: 0.03

Q: With GGCAGAGCUCAACACAGAGUGGCAAAGUGGCUGUGGCUGGACAGUC [C18A A39G U43A C45U] as the variant, how does the self-cleavage read?
A: 0.03

Q: With GGCAGAGCUGAACACAGCGUGUCAAAGUGGCUGUGGCUUGACUGCC [C10G G22U A39U] as the variant, how does the self-cleavage read?
A: 0.15

Q: With GGCAGAGCUCAACACAGCGUGGCAAAGUGGCGGUGUCUAUACUGCC [U32G G36U G40U] as the variant, how does the self-cleavage read?
A: 0.03

Q: With GGGAGAGCUCAACUCAGCGUGGCAAAUUGGCUGUGGCUAGACUGAC [C3G A14U G27U C45A] as the variant, how does the self-cleavage read?
A: 0.05

Q: Which self-cleavage does the source give for GUCAGAGCUCAACACAGCGUGGCAAAGUGGCUGGGGCUCGACUGCC [G2U U34G A39C] here?
A: 0

Q: Which self-cleavage does the source give for GGCAGAGCUCAACACAGCGUGACAAUGUGGCUGUGGCUAUACUGCC [G22A A26U G40U] here?
A: 0.13

Q: With GUCAGAUCUCAACACAGCGUGGCAAAGUGCCUGUGGCUAAACUGCC [G2U G7U G30C G40A] as the variant, how does the self-cleavage read?
A: 0.05

Q: For GGCUGAGCUCAACACAGCGCGGCAAAGUGGCUGUGGUUAGACUGCC [A4U U20C C37U], which self-cleavage is on record?
A: 0.07

Q: For GGCAGAGCGCAACACAGCGUGCCAAAGUAGCUGUGGCUUGACUGCC [U9G G22C G29A A39U], which self-cleavage is on record?
A: 0.05
